Reference: PubChem BioAssay AID743279 (National Center for Advancing Translational Sciences (NCATS), 2014)
Among all 360,000 compounds or so, about 17,000 (4.7%) were called active. Inconclusive results, whose numbers are uncertain, are shown with a selection of clear calls. No stated cut-off is given here; in the data, active means activity change below about -50%; inconclusive means mostly about -30% to -49%; inactive means weaker than that.

Assay: qHTS for Inhibitors of Inflammasome Signaling: IL-1-beta AlphaLISA Primary Screen
Conditions: THP-1 LPS/ATP IL-1B secretion, 16 h; at 57.5 µM, active compounds read low
In short: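 THP-1 cells pretreated 1 hr with compounds (up to 57.5 uM final), then stimulated with LPS (250 ng/mL final) plus ATP (1.25 mM final); secreted IL-1B measured by AlphaLISA after 16 hr, decreased signal indicating inhibition.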
On the % scale 0 is the no-effect control and ±100 the full control effect.

Activity change, active:
CCCCCCCCCCOC(=O)Cn1c(COc2ccccc2C)[n+](C)c2ccccc21 -96.6%
FC(F)Oc1ccc(NC(=S)NNc2ccnc3cc(Cl)ccc23)cc1 -92.8%
COc1ccc(NC(=S)N2CCN(C(c3ccccc3)c3ccccc3)CC2)c(OC)c1 -59.4%
O=S(=O)(c1c(Cl)cc(Br)cc1Cl)N1CCN(C(=S)NC2CC2)CC1 -84.6%
Cc1ccccc1OCC(O)CNC1CCC(NCC(O)COc2ccccc2C)CC1 (configuration not stated) -97.6%
CC(C)(C)c1ccc(C(=O)Nc2ccc(S(N)(=O)=O)cc2)cc1 -76.1%
COc1ccc(C2N(c3ccc4c(c3)OCCO4)C(=O)C2(F)F)cc1OC (configuration not stated) -78.7%
Oc1ccc(/C(Cc2ccc3ccccc3n2)=N\Nc2ccccc2)c(O)c1 -97.9%
Cc1cc(C)c2nc(C)cc(N/N=C/c3ccc(O)cc3)c2c1 -98.3%
Cc1ccc(-n2cc(CNCCc3cscn3)c(-c3ccc(F)cc3)n2)cc1 -94.2%
Nc1cccc2c1C(=O)N(C(=O)/C=C/c1cccc(F)c1)C2=O -70.2%
COc1ccc(-c2cc(-c3ccccc3)n[nH]2)c(O)c1 -92.7%
COc1ccc(OCC(=O)NC2CCCc3ccccc32)cc1 (configuration not stated) -86.8%
O=C(CSc1ncc(-c2ccccc2)n1C1CCCC1)N1CCc2ccccc21 -61.4%

Activity change, inactive:
Cc1cc(N2CCN(C(=O)c3ccco3)CC2)n2nc(-c3cccc(F)c3)cc2n1 -23.7%
CC(C)(CC1(C)NC(=O)NC1=O)OCc1ccccc1 (configuration not stated) 8.86%
O=C(c1ccccn1)c1conc1C(=O)c1ccc(Br)cc1 -13%
CCN1CCc2c(sc(NC(=O)c3ccc(S(=O)(=O)N4CC(C)OC(C)C4)cc3)c2C(N)=O)C1 (configuration not stated) 8.1%
C[C@H]1CN([C@@H](C)CO)C(=O)c2cc(NC(=O)Nc3cccc4ccccc34)ccc2O[C@@H]1CN(C)Cc1ccc(-c2ccccc2)cc1 0.899%
O=C(CSc1ccc(Cl)cc1)NC1CCCc2ccccc21 (configuration not stated) -2.12%
COc1ccc(C(=O)Nc2ccc(Cl)cc2F)cc1S(=O)(=O)N1CCCC1 -0.993%
CCN(CC)c1ccc(S(=O)(=O)N2CCOCC2)cc1NC(=O)CNCc1ccccc1 -21.5%
Oc1c(Br)cc(Br)cc1C=Nc1cccc2ncccc12 113%
C[C@H](CO)N1C[C@H](C)[C@@H](CN(C)Cc2ccncc2)OCc2cnnn2CCCC1=O 13.5%
COc1ccc(OC)c(NC(=O)c2cc3oc4ccccc4c3cc2O)c1 30.9%
CC1=Nc2ccccc2/C1=C/c1nc(-c2ccc(C)s2)oc1O 28%
CN1CCN(C(=S)NC(=O)c2ccc(-c3ccccc3)cc2)CC1 -27.6%
OC(CCN1CCOCC1)c1ccccc1 (configuration not stated) 0.432%
COc1ccc(-c2cc(C(F)(F)F)c(C#N)c(SCC(=O)Nc3nc(C)co3)n2)cc1 -7.54%
COc1ccccc1NC(=O)NCCCCc1ccccc1 -5.63%
CC(C)(C)N1CC(C(=O)Nc2ccc(C#N)cc2)CC1=O (configuration not stated) 17.5%
CC(=O)c1cc(C(=O)N2CCCC(C(=O)c3ccc(Cl)cc3)C2)cs1 (configuration not stated) 0%
CC(C)c1ccc(NC(=O)C2CCN(S(C)(=O)=O)CC2)cc1 -5.49%
CCCc1nc2ccc(C)cn2c1Cc1ccccc1 32.6%
O=C1CC(N2CCN(c3ccc(F)cc3)CC2)C(=O)N1c1ccc(F)cc1 (configuration not stated) 31%
Cc1cc(C)cc(C(O)c2ncc(-c3ccc4ccccc4c3)[nH]2)c1 (configuration not stated) 13.6%
COc1cccc(C(NC(C)=O)c2nc(-c3cccs3)cs2)c1 (configuration not stated) 23.1%
CCCCNC(=O)C1(C)CCN1C(=O)c1cccc(OC(F)(F)F)c1 (configuration not stated) 2.44%
CCN1CCCC1CNC(=O)c1cc2c(OC)c(OC)c(OC)cc2[nH]1 (configuration not stated) 6.87%
O=C(CCC1CCCN(c2ncccn2)C1)NCc1ccc(F)c(F)c1 (configuration not stated) 9.03%

Activity change, inconclusive:
Cc1nn(-c2nccs2)c2c1C(=O)CC(C)(C)C2Br (configuration not stated) -38.3%
CN(C)CCN(Cc1ccccc1)S(=O)(=O)c1csc(C(N)=O)c1 -35.4%
Cc1cc(CSc2ccc(Cl)cc2)ccc1N -35.7%
CCc1noc(C)c1C(=O)Nc1nc(-c2ccc(Cl)cc2Cl)cs1 -42.2%
Cc1ccc(-c2nnc(NC(=O)c3ccc([N+](=O)[O-])o3)o2)c(C)c1 -39.6%
CCOC(=O)/C(=C\c1ccc(N2CCC(c3ccccc3)=N2)cc1)C(C)=O -44.7%
CCOc1ccc(C(=O)C[n+]2ccc(C(=O)NCc3ccccc3)cc2)cc1 -40.6%
COc1ccc(NC(=O)COC(=O)C2CC2)cc1S(=O)(=O)N1CCCCC1 -31.3%
COc1ccc2c(c1)C(=O)N1[C@H]3c4cc(Cl)ccc4OC[C@@H]3[C@H](c3ccccc3)[C@]1(C)C(=O)N2 -44.3%
CCCCC1CC(=O)NC1(C(=O)OCC)C(=O)OCC (configuration not stated) -32.8%
COc1cc2c(cc1NC(=O)CCCCCN1C(=O)CCC1=O)oc1ccccc12 -37.2%
CC(C)Cn1c(SCC(=O)N2CCOCC2)nc2ccccc2c1=O -30.9%
N#Cc1ccccc1CSc1nnc(Cc2ccccc2)o1 -30%
COc1ccccc1Nc1ncnc2c1c(C)c(C)n2CCO -37.3%
CCN1CCN(c2ccc([N+](=O)[O-])c(Sc3nc4ccccc4[nH]3)c2)CC1 -48.9%
COc1cc(/C=N/N=C2/C(=O)Nc3ccccc32)ccc1O -38.3%
CCOc1ccc2c(c1)C(c1ccc(C)cc1)=NNC(c1ccc(OC)cc1)=N2 -31.3%
O=C(c1ccc2c3c(cccc13)CC2)C1CCCN(Cc2ccncc2)C1 (configuration not stated) -39.1%
Cc1ccc(C2(C)NC(=O)N(CC(=O)Nc3ccccc3N3CCCCC3)C2=O)cc1 (configuration not stated) -35.6%
c1ccc(-c2nc(N3CCNCC3)nc3ccccc23)cc1 -49%
Cc1nn2c(NCCOCCO)c3c(nc2c1-c1ccccc1)CCCC3 -39.8%
CC(NC(=O)CC(c1ccccc1)c1cc(Cl)ccc1O)c1ccccc1 (configuration not stated) -47.6%
COc1ccc(CNc2nn3c(-c4cccc(C(=O)N(C)C)c4)cnc3s2)cc1 -44.9%
COc1ccc([C@H]2CC(=O)C=C(c3ccc(F)cc3OCc3ccccc3)C2)cc1OC -41.5%
CCc1cc2ccc(C)cc2nc1SCC(=O)N1CCN(C(=O)c2ccco2)CC1 -37.1%
COC(=O)CNC(c1ccccc1Cl)c1cc(Br)ccc1NC(=O)CCN1CCOCC1 (configuration not stated) -49.6%
Cc1cccc(COC[C@H](CC(C)C)N2CCN(C(=O)c3ccc(C(F)(F)F)cc3)CCC2=O)c1 -47%
O=C(C1CCCN(S(=O)(=O)c2cccc3nonc23)C1)N1CCC(Cc2ccccc2)CC1 (configuration not stated) -47.5%
COc1cc(/C=N/NC(=O)CC2(C)OCCCO2)ccc1OCc1ccc(Cl)cc1Cl -47.3%
COc1ccc(Nc2nc3ccc(OC)cc3s2)cc1 -44%
Cc1nnc(SCC(=O)c2cc(C)n(C3CC3)c2C)s1 -44.6%
CCOC(=O)[C@]12CCC=C1N(Cc1ccc(Cl)cc1Cl)C(=O)[C@H](CC(=O)NCCc1ccccc1OC)C2 -42.7%
CC1CC(C)CN(C(=O)/C(=C\c2ccccc2)c2ccccc2)C1 (configuration not stated) -31.4%
CCCCCc1cc(=O)oc2c(C(CCN3CCCCC3)c3ccc(OC)cc3)c(OC)cc(OC)c12 (configuration not stated) -38.8%
O=C(CSc1ccc(Cl)cc1)N1CCN(c2ccc(Cl)cc2[N+](=O)[O-])CC1 -39.1%
CC[C@@H]1C(c2ccccc2)=NN(c2ccc(Br)cc2)[C@H]1C(=O)N1CCOC1=O -47.9%
Cc1nc2c(ccc3nc(NC(=O)C4CC4)sc32)s1 -45.3%
N#Cc1nc(COc2ccc(F)cc2)oc1N1CCC(Cc2ccccc2)CC1 -40.6%
O=C(Oc1ccccc1)N1CCN(c2ccccc2F)CC1 -47.5%
O=[N+]([O-])c1ccccc1NC1CCN(Cc2ccccc2)CC1 -37.3%
COc1cc(C(=O)N2CCOC23CCN(Cc2ccccc2)CC3)cc(OC)c1OC -42%
O=C(CN1CCSC1=NCc1ccccc1)c1ccc(Cl)cc1 -33.3%
CN(C)C(=O)CCc1ccc2c3c([nH]c2c1)[C@]1(C)[C@@H](C(=O)N2CCCCC2)C[C@H](CC(=O)NCC24CC5CC(CC(C5)C2)C4)C(=O)N1CC3 -33.6%
CCN(c1ccccc1)c1nc(C#N)nc(N(CC)c2ccccc2)n1 -31.2%
Cc1sc(NC(=O)c2ccco2)c(CN2CCC(C)CC2)c1C -30.5%
Cc1ccc2c(c1)c(C)c(C)n2CC(O)Cn1nc(C)c(Br)c1C (configuration not stated) -45.4%
CCc1cc(C=C(Cl)Cl)oc(=O)c1C -39.6%
